In all, about 43,000 compounds went through this assay and about 200 (0.47%) were called active. Roughly 12% stayed inconclusive and do not appear here. Calls follow the shape of the dose curve; as a rule, active = well fitted cell-killing curve with a large enough effect; inconclusive = small, poorly fitted or top-dose-only effect, or effect the other way; inactive = flat fitted curve, though single readings scatter. Some of the results follow.
experiment: Cell viability qHTS assay in S16 Pmp22-F2sN cells; details: S16 Pmp22-F2sN Schwann cells (luciferase reporters placed in the Pmp22 gene) viability, CellTiter-Glo, 24 h; series mostly up to 57.5 µM; activity change, negative = cytotoxicity: at the top concentration; also: nearly all actives have a fitted effect of over 65% in size
How it was run: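 CellTiter-Glo counter-screen, qHTS, 1536-well. Cells: S16(c9) Pmp22-F2sN, 500-1,000/well in DMEM + 10% FBS. Cpd 23 nL pin transfer, 24 h, 37C/5% CO2. Read: luminescence, CCD imager.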
% is scaled to controls: 0 for no effect and ±100 for the full control effect.

Row | Compound | activity change, negative = cytotoxicity
1 | CCN(CC)c1ccc(NC(=O)CCc2c(C)nc3ncnn3c2C)c(C)c1 | inactive: 8.5%
2 | COc1ccc(Cl)cc1NC(=O)Cn1nnc2sc(-c3ccccc3)cc2c1=O | inactive: 16.8%
3 | Cc1ccc(Cl)cc1N1CCN(C(=O)c2noc3c2CCCC3)CC1 | inactive: 3.69%
4 | Cc1ccc(-n2nnnc2CNC(=O)C2CC(=O)N(c3ccccc3)C2)cc1C (stereo unspecified) | inactive: 10.2%
5 | O=C1CN(C(=O)Cc2ccccc2)C(c2ccc(F)cc2)c2cc(Br)ccc2N1 (stereo unspecified) | inactive: -2.73%
6 | CCOc1ccc(NC(=O)[C@@H](c2ccccc2)N2Cc3ccccc3C2=O)cc1 | inactive: -0.863%
7 | CC(C)c1ccc(N2C(=O)N(Cc3cccc([N+](=O)[O-])c3)c3ccccc3S2(=O)=O)cc1 | inactive: 4.75%
8 | Cc1noc(-c2ccc(-c3noc(-c4ccc([N+](=O)[O-])c(C)c4)n3)cc2)n1 | inactive: -15.7%
9 | COc1ccc(NS(=O)(=O)c2ccc3c(c2)[C@H]2C=CC[C@H]2[C@@H](c2ccc(C(=O)O)cc2)N3)cc1 | inactive: 3.79%
10 | CCCc1nn2c(=O)cc(COC(=O)c3ccc(NC(=O)COc4ccccc4F)cc3)nc2s1 | inactive: -7.35%
11 | CCOc1ccc(CCNCc2c(C(=O)O)c(C)n(Cc3ccccc3F)c2C)cc1 | inactive: 12.6%
12 | Cc1ccc(S(=O)(=O)N2CCc3cc(C(=O)Nc4ccc(Cl)cc4C)ccc32)cc1 | inactive: 4.6%
13 | Cc1ccc(-c2cc(NC(=O)c3cccc(C)c3)on2)cc1 | inactive: 4.36%
14 | CCc1nonc1NC(=O)c1oc2cc(C)c(C)cc2c1C | inactive: 2.04%
15 | O=S(=O)(NCc1ccc(F)cc1)c1ccc2[nH]c3c(c2c1)CCCC3 | inactive: -14.4%
16 | CC1CCCCN1C(=O)CN1CCSc2ccccc21 (stereo unspecified) | inactive: -5.07%
17 | CCc1ccccc1NC(=O)CCCn1c(=O)c2cccn2c2ccccc21 | inactive: -12.6%
18 | COc1cccc(-n2c(SCC(N)=O)nc3c(oc4ccccc43)c2=O)c1 | inactive: 6.72%
19 | COc1ccc(NC(=O)C2Cc3ccccc3CN2S(=O)(=O)c2ccccc2)cc1OC (stereo unspecified) | inactive: -0.632%
20 | COc1ccc(C(=O)Oc2ccc(C(c3c(C)[nH][nH]c3=O)c3c(C)[nH][nH]c3=O)cc2)cc1 | inactive: 7.37%
21 | CCc1cccc(-n2c(=O)c3cccnc3n2CC(=O)Nc2ccc(OC)c(Cl)c2)c1 | inactive: -18.1%
22 | Cc1ccc(NC(=O)c2cnc3cc(C)ccn3c2=O)c(C)c1 | inactive: 7.36%
23 | CCCCSc1nc(-c2cccc(OC)c2)nc2c1Cc1c(CO)cnc(C)c1O2 | inactive: 25.5%
24 | COc1ccc(OC)c(NC(=O)C2CCN(S(=O)(=O)c3c(C)noc3/C=C/c3ccc(C)cc3)CC2)c1 | inactive: 25.4%

Row | Compound | activity change, negative = cytotoxicity
25 | CC1CCCCN1CCCNC(=O)c1sc2ncccc2c1-n1cccc1 (stereo unspecified) | inactive: 3.16%
26 | CCC(C)n1c(=N)c(C(=O)NCc2ccco2)cc2c(=O)n3cc(C)ccc3nc21 (stereo unspecified) | inactive: 21.2%
27 | COc1cccc(NC(=O)Cn2nc(-c3ccncc3)ccc2=O)c1 | inactive: 1.73%
28 | CNC(=O)C1CCC(Cn2c(=O)c3sccc3n(CC(=O)Nc3cc(C)cc(C)c3)c2=O)CC1 (stereo unspecified) | inactive: 0.143%
29 | O=C(c1c[nH]c2ccc(S(=O)(=O)Nc3ccccc3F)cc2c1=O)N1CCCCCC1 | inactive: 10.5%
30 | CC(C)c1ccc(C(=O)CC2(O)C(=O)N(CCc3ccccc3)c3ccc(Cl)cc32)cc1 (stereo unspecified) | inactive: 24.2%
31 | CCOc1ccc(NC(=O)C(=O)NCCc2sc(-c3ccc(C)cc3)nc2C)cc1 | inactive: 14.7%
32 | CCOCCCNC(=O)C1CCN(c2nc3ccc(Cl)cc3[nH]2)CC1 | inactive: -2.13%
33 | O=C(c1cnn(-c2ccc(F)cc2)c1-n1cccc1)N1CCN(c2cccc(Cl)c2)CC1 | inactive: -1.23%
34 | Cc1ccc(C(=O)Nc2cc(-c3nc4cc(Cl)ccc4o3)ccc2C)c(C)c1 | inactive: 0.072%
35 | COc1ccc(Cn2c(CNS(=O)(=O)c3ccc(Cl)s3)nc3cccnc32)cc1 | inactive: -8.82%
36 | O=S(=O)(NCc1csc(-c2ccccc2)n1)c1ccccc1 | inactive: 0.604%
37 | Cc1cccc(Cn2c(CN3CCC(C(=O)NCc4ccccc4Cl)CC3)cc3ccccc32)c1 | inactive: -11.5%
38 | CCCN1C(=O)c2[nH]nc(-c3ccc(OC)cc3)c2C1c1ccccn1 (stereo unspecified) | inactive: 2.62%
39 | COC(=O)c1sc(N2C(=O)c3oc4cc(C)c(C)cc4c(=O)c3C2c2ccccc2F)nc1C (stereo unspecified) | inactive: 2.24%
40 | CC(=O)Nc1ccc(S(=O)(=O)N2CCN(c3ccc(C)c(C)c3)CC2)cc1 | inactive: -7.47%
41 | Cc1cc(N2CCN(C)CC2)nc2ccc(NC(=O)c3ccccc3F)cc12 | inactive: -20.1%
42 | O=c1c2cccnc2n(Cc2ccc(Cl)cc2)c(=O)n1Cc1ccc(F)cc1 | inactive: 12.3%
43 | CNC(=O)c1cccc(-n2c(C)nc3cccnc32)c1C | inactive: 0.68%
44 | CCCSc1nnc(NC(=O)Cc2coc3cc(C)ccc23)s1 | inactive: 1.18%
45 | CC(=O)c1ccc(NC(=O)CSc2nc3c(=O)n(C)c(=O)n(C)c3n2C)cc1 | inactive: 2.88%
46 | Cc1cc(OCC(=O)Nc2ccc(C(=O)OC3CCCCC3)cc2)ccc1Cl | inactive: 1.95%
47 | O=C(CSc1nnc2[nH]c(=O)cc(-c3ccccc3)n12)Nc1ccccc1C(F)(F)F | inactive: 1.46%
48 | Cc1cccc(NC(=O)Nc2ccc(C)c(C)c2)n1 | inactive: 1.01%

Row | Compound | activity change, negative = cytotoxicity
49 | COc1ccc(CCNC(=O)c2cc3c(=O)n4ccccc4nc3n2C)cc1 | inactive: 3.91%
50 | CCc1ccc(NC(=O)CSC2=Nc3ccccc3C3=NC(CC(=O)NCc4cccs4)C(=O)N23)cc1 (stereo unspecified) | inactive: 4.22%
51 | COc1cccc(N2CCN(C(=O)c3ccc4c(Cl)c5c(nc4c3)CCCC5)CC2)c1 | inactive: 25.2%
52 | CCC(Cn1nnc2ccccc2c1=O)NC(=O)Nc1cc(OC)cc(OC)c1 (stereo unspecified) | inactive: 1.86%
53 | Cc1cc2c(cc3c(SCc4cccc(Cl)c4)nnc(C)n32)o1 | inactive: 1.73%
54 | COc1ccc(NC(=O)Cn2cc(S(=O)(=O)c3ccccc3)c(=O)c3cc(C)ccc32)cc1Cl | inactive: -1.56%
55 | CCc1cccc(C)c1NC(=O)c1cc2ccccc2o1 | inactive: -18.5%
56 | Cn1cc(S(=O)(=O)c2ccccc2)c(=O)c2cc(F)c(N3CCCC3)cc21 | inactive: -0.941%
57 | Cc1cc(S(=O)(=O)NCCc2csc(-c3cccc(F)c3)n2)ccc1F | inactive: -12.8%
58 | CCCC(=O)OC1=C(C(C)=O)N(Cc2ccccc2)S(=O)(=O)c2ccccc21 | inactive: -16%
59 | O=C1CCSC2(C(=O)N(Cc3ccccc3)c3ccccc32)N1c1ccccc1 (stereo unspecified) | inactive: 3.65%
60 | CCCCOc1ccc(S(=O)(=O)n2nc(C)c(S(=O)(=O)N3CCCCCC3)c2C)cc1 | inactive: -1.46%
61 | O=C(NCCCN1CCN(c2ccccc2F)CC1)c1sc2ncccc2c1-n1cccc1 | inactive: -24.2%
62 | CCCCNC(=O)c1cnc2c(-c3ccc(OCC)c(OCC)c3)c(C)nn2c1-c1ccccc1 | inactive: 4.2%
63 | O=C(CCS(=O)(=O)c1cc2c(cc1Cl)NC(=O)CO2)NCc1ccccc1 | inactive: 5.22%
64 | O=C(Cn1nnc(-c2cccc(C(F)(F)F)c2)n1)NCc1ccc(F)cc1 | inactive: -0.684%
65 | CCc1ccc(CNC(=O)c2cc3cc4ccc(OC)cc4nc3o2)cc1 | inactive: 16.6%
66 | Cc1ccc(OCc2cc(=O)n3c(-c4ccccc4)csc3n2)cc1 | inactive: 13.1%
67 | CCN(CC)S(=O)(=O)c1ccc2c(c1)c(=O)c(C(=O)N1CCN(c3ccccc3OC)CC1)cn2C | inactive: 2.32%
68 | CC(C)CCNC(=O)Cn1cc(S(=O)(=O)Cc2ccc(F)cc2)c2ccccc21 | inactive: -16.4%
69 | COc1cc(NC(=O)Nc2c[nH]c(=O)[nH]c2=O)cc(OC)c1OC | inactive: 12.5%
70 | Cc1ccc(NC(=O)C(=O)NCC(c2ccc3c(c2)OCO3)N2CCN(C)CC2)cc1C (stereo unspecified) | inactive: -6.67%
71 | Cc1c(C(=O)Oc2ccc(Br)cc2)sc2ncn(Cc3ccccc3F)c(=O)c12 | inactive: 5.98%
72 | COc1ccc(-c2cc(C(=O)NCc3ccc(C)cc3)c3cc(C(C)C)ccc3n2)cc1 | inactive: 1.98%

Row | Compound | activity change, negative = cytotoxicity
73 | Cn1c(=O)n(C)c2cc(N3CCOCC3)c(NS(=O)(=O)c3ccc(F)cc3)cc21 | inactive: -1.91%
74 | O=C1CN(C(=O)c2c(F)cccc2Cl)C(c2ccc(F)cc2)c2cc(Br)ccc2N1 (stereo unspecified) | inactive: -26.9%
75 | Cc1ccc2c(c1)c1c(c(=O)n(-c3ccccc3)c(=O)n1CC(=O)c1ccc(Cl)cc1)n2C | inactive: 9.49%
76 | Cc1ccc2nc(/C(C#N)=C/c3ccc(-c4ccc(C(=O)OC(C)C)cc4)o3)[nH]c2c1 | inactive: -16.4%
77 | Fc1ccc(-c2nnn3c2nc(NCc2ccccc2)c2ccccc23)cc1 | inactive: 3.85%
78 | CCOc1cc(C(=O)Nc2ccc(-c3nnc4n3CCCCC4)cc2)cc(OCC)c1OCC | inactive: -9.38%
79 | COC(=O)c1cccc(CN2C(=O)SC(Nc3ccccc3C)C2=O)c1 (stereo unspecified) | inactive: -7.47%
80 | CCc1ccc(CNC(=O)C2CCN(C(=O)c3ccc(-n4c(C)cc5ccccc54)s3)CC2)cc1 | inactive: -28.5%
81 | COc1ccc(-n2c(=O)c3c4c(sc3n(CC(=O)C(C)(C)C)c2=O)CCCC4)c(OC)c1 | inactive: -2%
82 | CN(C(=O)CSc1nc2ccc(NC(=O)c3cccs3)cc2s1)c1ccccc1 | inactive: -23.6%
83 | CCOc1ccc(NC(=O)CSc2nccn2C2CCCC2)cc1 | inactive: -1.27%
84 | COc1ccc(Cl)cc1C(=O)NCC(c1ccc(N(C)C)cc1)N1CCCC1 (stereo unspecified) | inactive: 1.95%
85 | O=C(Cn1c(-c2cccs2)cc2cc(Cl)ccc21)N1CCCCC1 | inactive: -2.69%
86 | Cc1ccc(NC(=O)C2CCCN(S(=O)(=O)c3ccc4c(c3)CCCC(=O)N4)C2)cc1N(C)C (stereo unspecified) | inactive: -0.583%
87 | Cc1ccc(C)c(NC(=O)Cn2c(=O)n(CCCS(=O)(=O)C3CCCCC3)c(=O)c3ccccc32)c1 | inactive: 1.98%
88 | Cc1ccc(-c2ccc(CCC(=O)O)n2-c2ccc(C)c(Cl)c2)cc1 | inactive: -1.64%
89 | CCOC(=O)c1cccc(NC(=O)c2cc3c(Cl)nc4ccc(C)cc4c3s2)c1 | inactive: 8.84%
90 | COc1ccc(-n2cc(-c3ccccc3)c3c(SC(C)C(C)=O)ncnc32)cc1 (stereo unspecified) | inactive: 6.72%
91 | COc1ccc(NC(=O)C(=O)NCCc2ccccc2)cc1OC | inactive: -2.99%
92 | COc1cccc(C(=O)Nc2ccccc2C(=O)OCc2cc(=O)n3nc(C)sc3n2)c1 | inactive: 3.64%
93 | COc1ccccc1CNC(=O)CSc1ncc2c(n1)-c1ccccc1N(Cc1ccc(C)cc1)S2(=O)=O | inactive: 15.2%
94 | COc1ccc(-c2noc(C3CC(=O)N(c4ccc(C)c(F)c4)C3)n2)c(OC)c1 (stereo unspecified) | inactive: -0.301%
95 | CCN1CCN(C(=O)c2ccc3c(c2)N(Cc2cccc(Cl)c2)C(=O)c2ccccc2S3(=O)=O)CC1 | inactive: -1.88%
96 | CCc1nnc(SCc2ccc(F)cc2Cl)c2cc3sccc3n12 | inactive: 18.7%
